Among all 48,000 compounds or so, about 550 (1.1%) were called active. Another 4% or so got no clear call; they are omitted. Cut-off read from the data, not from the text of the source: active = potency below about 15 µM; inconclusive = mostly about 16 µM to 33 µM; inactive = weaker than that. Some of the results follow.
Molecular target: Lysosomal acid glucosylceramidase (Homo sapiens) (UniProt P04062)
Assay: Glucocerebrosidase;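 note: the screen sought inhibitors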
Details: purified enzyme, resorufin glucoside fluorescence (screen aimed at inhibitors), 20 min
Procedure, shortened: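 Normal human glucocerebrosidase (0.2 nM final) was assayed with resorufin β-D-glucopyranoside (30 uM final) in 50mM citric acid/KH2PO4, 10mM sodium taurocholate, 0.01% tween-20, pH 5.9. Compounds were titrated; fluorescence (Ex 548, Em 600) read after 20 min at RT.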
Potency is the fitted concentration of half-maximal effect.

Sequence of UniProt P04062 (P04062 whole entry, looked up): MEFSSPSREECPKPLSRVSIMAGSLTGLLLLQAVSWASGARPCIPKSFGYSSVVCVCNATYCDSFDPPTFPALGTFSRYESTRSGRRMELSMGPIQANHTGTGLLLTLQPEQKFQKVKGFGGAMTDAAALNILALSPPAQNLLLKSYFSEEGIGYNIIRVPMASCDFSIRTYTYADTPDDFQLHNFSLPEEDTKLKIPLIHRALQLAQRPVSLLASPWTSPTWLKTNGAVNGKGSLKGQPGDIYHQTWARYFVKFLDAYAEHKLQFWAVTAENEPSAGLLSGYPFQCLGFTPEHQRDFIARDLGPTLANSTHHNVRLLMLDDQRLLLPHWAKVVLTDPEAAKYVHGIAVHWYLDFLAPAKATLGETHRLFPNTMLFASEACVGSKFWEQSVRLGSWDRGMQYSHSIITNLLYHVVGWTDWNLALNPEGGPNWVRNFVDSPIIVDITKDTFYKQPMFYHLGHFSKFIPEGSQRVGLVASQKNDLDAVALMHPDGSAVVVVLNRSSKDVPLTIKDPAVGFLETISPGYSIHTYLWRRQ

Potency, inactive:
CC(=O)N1CCc2cc(S(=O)(=O)N3CCOCC3)ccc21 > 76.9 µM
COCCCNC(=O)CSc1nc2ccccc2c(=O)n1CCCC(=O)NCC1CCCO1 (configuration not stated) > 76.9 µM
CCCN1C(=O)c2ccc(C(=O)Nc3nccs3)cc2C1=O > 76.9 µM
N#Cc1ccc(CSc2nnc(-c3cnccn3)o2)cc1 > 76.9 µM
COCCN1CN(S(=O)(=O)c2ccccc2)c2nc3ccccc3nc21 > 76.9 µM
NC(=O)C1CCCN(S(=O)(=O)c2ccc(Br)cc2)C1 (configuration not stated) > 76.9 µM
CCOC(=O)C1CCN(Cc2c(O)ccc3ccccc23)CC1 > 76.9 µM
c1ccc(-n2cnnc2SCc2nc3ccccc3s2)cc1 > 76.9 µM
COc1ccc(S(=O)(=O)Nc2nnc(C(C)C)s2)cc1 > 76.9 µM
O=C(Cc1c(C(=O)O)[nH]c2ccccc12)NCCN1CCN(c2cccc(Cl)c2)CC1 > 76.9 µM
CCCCCn1c(CN2CCN(Cc3ccccc3)CC2)nc2c1c(=O)n(C)c(=O)n2C > 76.9 µM
CCc1ccc(OCC(O)CN2CCN(c3ccccc3)CC2)cc1 (configuration not stated) > 76.9 µM
CCOC(=O)C(NC(=O)CC)(Nc1ccc(S(=O)(=O)Nc2ncccn2)cc1)C(F)(F)F (configuration not stated) > 76.9 µM
CC1C2CC(C(S(=O)(=O)N3CCOCC3)C2=O)C1(C)C (configuration not stated) > 76.9 µM
Cc1ccc(C(=O)Nc2cccc(C(=O)NCc3ccco3)c2)cc1 > 76.9 µM
Cc1nc(NC(=O)c2ccccc2)sc1-c1csc(N)n1 > 76.9 µM
COc1ccc(-c2csc(Cc3nnc4n3CCCCC4)n2)cc1OC > 76.9 µM
CCCCCOc1ccc(C2C(C(C)=O)=C(C)Nc3ncnn32)cc1OC (configuration not stated) > 76.9 µM
NC(=O)C1CCN(c2nc(C3CC3)nc3c2nnn3Cc2ccccc2Cl)CC1 > 76.9 µM
CC(C)Cn1c(=O)c(C(=O)Nc2cnccn2)c(O)c2ccccc21 > 76.9 µM
CN1CCN(CCC(=O)Nc2ccccc2Cl)CC1 > 76.9 µM
O=C(Cn1nnc2ccccc2c1=O)Nc1cc(C(F)(F)F)ccc1N1CCOCC1 > 76.9 µM
N#Cc1nc(-c2ccc(OCc3ccc(Cl)cc3)cc2)oc1NCCCn1ccnc1
O=C(Nc1ccccc1-c1nnn(CC(=O)N2CCN(c3ccccc3)CC2)n1)c1cccs1 > 76.9 µM
N#CC12C(N)=NC3(OCCO3)C1(C#N)C1=C(CCC1)NC2c1ccccc1 (configuration not stated) > 76.9 µM
CC(C)C(c1nnnn1Cc1ccccc1)N1CCN(Cc2ccc3c(c2)OCO3)CC1 (configuration not stated) > 76.9 µM
CCCCN(CCCNC(=O)c1c(C)cc(=O)oc1C)c1ccccc1 > 76.9 µM
COCCn1c(SCC(=O)N2CCCC2)nnc1-c1ccoc1C > 76.9 µM
C=CCn1c(SCC(N)=O)nnc1-c1ccccc1O > 76.9 µM
COc1ccc(CCNC(=O)CSc2ncnc3c2oc2ccccc23)cc1OC > 76.9 µM
O=C(CSc1nnc(COc2ccc(Cl)cc2)o1)OC1CCCCC1 > 76.9 µM
O=C(Cc1ccccc1)Nc1ccccc1CO > 76.9 µM
CC(C)N(C(=O)CSc1nn2c(=O)c(C(C)(C)C)nnc2s1)c1ccccc1 > 76.9 µM
CN1C(=O)N(C)C2(c3ccccc3)NC(=O)NC12c1ccccc1 (configuration not stated) > 76.9 µM
CCc1ccccc1NS(=O)(=O)c1ccc(SC)cc1 > 76.9 µM
CCOc1ccc(C(C)=O)cc1CSc1nnc(-c2cccs2)n1CC1CCCO1 (configuration not stated) > 76.9 µM
O=c1[nH]nc(CSCc2ccccc2Cl)[nH]1 > 76.9 µM
CCOC(=O)N1CCN(C(=O)Nc2ccc(Cl)cc2Cl)CC1 > 76.9 µM
O=C(c1cccc(-n2cnnn2)c1)N1CC=C(c2ccccc2)CC1 > 76.9 µM
CCc1ccc2[nH]c(=O)c(C(c3nnnn3CC3CCCO3)N3CCCc4ccccc43)cc2c1 (configuration not stated)
Cc1cc(C)cc(NCC(=O)Nc2c(C)cccc2C)c1 > 76.9 µM
Cc1nc2cc(NC(=O)NCc3ccc4c(c3)OCO4)ccc2o1 > 76.9 µM
CCn1c(=NC(=O)CSCC(=O)Nc2nccs2)sc2ccccc21 > 76.9 µM
Cc1nc2ccccc2n1CC(=O)N1CC(=O)Nc2ccccc21 > 76.9 µM
Cc1cc(Cl)c(S(=O)(=O)NC2CCCCC2)cc1OCC(=O)Nc1nncs1
CCN(CC)CCNC(=O)Cc1nn(CC)c(=O)c2ccccc12 > 76.9 µM
CCOc1ccc(NC(=O)CCS(=O)(=O)c2cccc3nsnc23)cc1 > 76.9 µM
Cc1cccc(OCC(O)CN2C(C)(C)CC(O)CC2(C)C)c1C (configuration not stated) > 76.9 µM
O=C(CC1CCS(=O)(=O)C1)Nc1ccc[nH]c1=O (configuration not stated) > 76.9 µM
CCCc1nc2oc3c(NCc4ccccn4)ncnc3c2c2c1COC(C)(C)C2 > 76.9 µM
NC(=O)c1c(N)sc(=S)n1-c1ccccc1 > 76.9 µM
CCCOc1ccc(C(CC(=O)O)NS(=O)(=O)c2ccc(NC(C)=O)cc2)cc1 (configuration not stated) > 76.9 µM
COc1ccc(-c2nsc(SCC(=O)Nc3cc(C)on3)n2)cc1 > 76.9 µM
COc1ccc2c(C(F)(F)F)cc(=O)oc2c1C > 76.9 µM
Cc1ccc2c(c1)cc(CN(Cc1ccccc1)C(=O)N(C)C)c1nnnn12 > 76.9 µM
CCn1c(SCC(=O)Nc2nccs2)nnc1-c1cc2cccc(OC)c2o1 > 76.9 µM
Cc1onc(-c2ccccc2Cl)c1C(=O)Nc1ccc(F)c(F)c1
COc1ccc(OC)c(NS(=O)(=O)c2ccc(SC)cc2)c1 > 76.9 µM
O=C(CN1C(=O)NC(Cc2ccccc2)C1=O)Nc1ccc(F)cc1 (configuration not stated) > 76.9 µM
COC(=O)c1ccccc1NC(=O)CSc1ccccn1 > 76.9 µM
Cc1cc(C)n(C(=O)c2ccc(S(=O)(=O)N3CCCC3)cc2)n1 > 76.9 µM
CC(C)C1N=C2c3ccccc3N=C(SCc3cc(=O)n4ccccc4n3)N2C1=O (configuration not stated) > 76.9 µM
Cc1c(C(=O)O)oc2ccc(S(=O)(=O)NCc3ccc(F)cc3)cc12 > 76.9 µM
O=C(Cc1ccccc1)Nc1cccc(N2CCCC2)c1 > 76.9 µM
CCn1cnc2cc(NCc3ccncc3)ccc21 > 76.9 µM
Cc1cc(=O)n(-c2ccc3ccccc3n2)[nH]1 > 76.9 µM
Cc1sc2ncn3ncnc3c2c1C > 76.9 µM
O=S1(=O)CCN2C(Cc3ccc(SC(F)F)cc3)=CSC2=N1 > 76.9 µM
Clc1ccc(OCc2nn3c(-c4ccccc4)nnc3s2)c(Cl)c1 > 76.9 µM
COc1ccc(CC(NC(C)=O)C(=O)NC2CCN(S(=O)(=O)c3ccccc3)CC2)cc1OC (configuration not stated) > 76.9 µM
O=S(=O)(NCc1ccco1)c1ccc2c(c1)Cc1ccccc1-2 > 76.9 µM
COc1ccc2nc(NC(=O)CSc3nnc4n3C(C)(C)Cc3ccccc3-4)sc2c1 > 76.9 µM
CCN(CC)S(=O)(=O)c1ccc(C(=O)Nc2c3c(nn2C(C)(C)C)CS(=O)(=O)C3)cc1 > 76.9 µM
Cc1cc(=O)[nH]c(/N=C(/NC(=O)c2ccccc2)Nc2ccc3c(c2)OCCO3)n1 > 76.9 µM
c1c2c(cc3sc(N4CCOCC4)nc13)OCCO2 > 76.9 µM
CCOCCCN1CC(C(=O)NCCc2ccc(C)cc2)CC1=O (configuration not stated) > 76.9 µM
O=C(O)CC(c1ccc(Cl)cc1)N1C(=O)CCC1=O (configuration not stated) > 76.9 µM
CCOC(=O)c1[nH]c2ccc(F)cc2c1NC(=O)C(C)N1CCc2cc(OC)c(OC)cc2C1 (configuration not stated) > 76.9 µM
Cc1ccc(C)n1NC(=O)c1ccco1 > 76.9 µM
Cn1c(SCC(=O)Nc2ccc(N3CCOCC3)c(Cl)c2)nnc1C(O)c1ccccc1 (configuration not stated) > 76.9 µM
CC1(C)CC(=O)N(CC(=O)O)c2ccccc2S1 > 76.9 µM
CCOC(=O)C1=C(C)NC(C)=C(C(=O)OCC)C1 > 76.9 µM
CCOP(=O)(c1ccc(N(C)C)cc1)C(O)c1cc(OC)c(OC)c(OC)c1 (configuration not stated) > 76.9 µM
CC1CN(C(=O)Cn2cnc3c2c(=O)n(C)c(=O)n3C)CC(C)O1 (configuration not stated) > 76.9 µM
CCC(C)(C)n1nnnc1C(c1ccc(C)cc1)N1CCCC1 (configuration not stated) > 76.9 µM
Cn1nc(C(=O)Nc2ccc(S(=O)(=O)N3CCCCC3)cc2)ccc1=O > 76.9 µM
Cc1c(C(=O)O)oc2c1C(O)CCC2 (configuration not stated) > 76.9 µM
CN(C)C=Nc1nonc1N > 76.9 µM
CCOc1cc2[nH]c(=O)n(CCc3ccc(OC)c(OC)c3)c(=O)c2cc1OCC > 76.9 µM
CCOC(=O)c1cnc(-c2cccc(OC)c2)[nH]c1=O > 76.9 µM
O=C(Nc1ccc(N2CCOCC2)cc1)Nc1ccc2nc(-c3ccco3)c(-c3ccco3)nc2c1 > 76.9 µM
CCOC(=O)CSc1nnc(NCC(=O)OC(C)C)c(=O)[nH]1 > 76.9 µM

Reference: PubChem BioAssay AID360 (National Center for Advancing Translational Sciences (NCATS), 2006)
